{"source": "the BET-seq Pho4 binding data (Le et al. 2018)", "note": "The other results are listed elsewhere or left out. The energies were worked out here from pooled read counts, against the library average; single values are noisy.", "data": [{"target": "T1, Pho4 (S. cerevisiae) (UniProt P07270)", "T1 sequence": "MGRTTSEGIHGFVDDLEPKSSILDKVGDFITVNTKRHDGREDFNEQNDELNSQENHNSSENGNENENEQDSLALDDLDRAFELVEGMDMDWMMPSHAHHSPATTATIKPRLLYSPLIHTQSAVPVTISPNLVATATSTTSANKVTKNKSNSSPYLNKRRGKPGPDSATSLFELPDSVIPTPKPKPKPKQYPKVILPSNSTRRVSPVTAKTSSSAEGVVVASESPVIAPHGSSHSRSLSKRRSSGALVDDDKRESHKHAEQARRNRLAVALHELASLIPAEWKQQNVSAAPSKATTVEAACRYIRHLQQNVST", "assay": "relative binding free energy (BET-seq); higher = weaker binding", "conditions": "reference: library average", "units": {"relative binding free energy": "kcal/mol"}, "values": [{"sequence": "GCAGTCACGTGGGATG", "relative binding free energy": 0.05}, {"sequence": "GGGAACACGTGGTTCG", "relative binding free energy": 0.04}, {"sequence": "TTCGACACGTGGGTAA", "relative binding free energy": -0.12}, {"sequence": "TGTTCCACGTGGTGTT", "relative binding free energy": -0.07}, {"sequence": "TTTTTCACGTGTCAGG", "relative binding free energy": 0.23}, {"sequence": "TTAGGCACGTGTGTGG", "relative binding free energy": -0.09}, {"sequence": "GTGGGCACGTGTTGTT", "relative binding free energy": 0.06}, {"sequence": "TTGCGCACGTGGGGGG", "relative binding free energy": -0.27}, {"sequence": "TGGGACACGTGTGTGA", "relative binding free energy": 0.04}, {"sequence": "GTGGCCACGTGGATGG", "relative binding free energy": -0.02}, {"sequence": "ATCAACACGTGGGTGG", "relative binding free energy": -0.23}, {"sequence": "TTGGCCACGTGCAGTG", "relative binding free energy": -0.08}, {"sequence": "CGTTGCACGTGAGCTT", "relative binding free energy": 0.19}, {"sequence": "GGTTGCACGTGCCTAG", "relative binding free energy": 0.07}, {"sequence": "GCGTGCACGTGTAGCG", "relative binding free energy": 0.07}, {"sequence": "GGTGTCACGTGTGCAG", "relative binding free energy": 0.07}, {"sequence": "GGACTCACGTGGAGGG", "relative binding free energy": 0.12}, {"sequence": "TGGGGCACGTGAGGAA", "relative binding free energy": 0.16}, {"sequence": "TTCTGCACGTGAAAGG", "relative binding free energy": 0.24}, {"sequence": "GCTTGCACGTGTCGGT", "relative binding free energy": 0.16}, {"sequence": "GATATCACGTGTGGTT", "relative binding free energy": 0.16}, {"sequence": "GGCGGCACGTGGGATC", "relative binding free energy": -0.07}, {"sequence": "TCGTTCACGTGGTTGG", "relative binding free energy": 0.4}, {"sequence": "GGCTGCACGTGGTGTT", "relative binding free energy": -0.09}, {"sequence": "ATAGTCACGTGTTCTG", "relative binding free energy": 0.16}, {"sequence": "GTGGTCACGTGGAGGC", "relative binding free energy": 0.2}, {"sequence": "TGAGGCACGTGGTATT", "relative binding free energy": -0.09}, {"sequence": "CTTGTCACGTGAGGAT", "relative binding free energy": 0.34}, {"sequence": "TGCTCCACGTGTTGGT", "relative binding free energy": -0.03}, {"sequence": "TTATTCACGTGGAATG", "relative binding free energy": 0.34}, {"sequence": "AGAGGCACGTGGCTTG", "relative binding free energy": -0.15}, {"sequence": "ATATTCACGTGATTGA", "relative binding free energy": 0.37}, {"sequence": "GATAGCACGTGATGTT", "relative binding free energy": 0.05}, {"sequence": "TGTCCCACGTGGGGGC", "relative binding free energy": -0.26}, {"sequence": "CGTGTCACGTGGGGGC", "relative binding free energy": -0.06}, {"sequence": "AATGACACGTGGCGGG", "relative binding free energy": 0.06}, {"sequence": "TTTCTCACGTGATGTC", "relative binding free energy": 0.44}, {"sequence": "TAGGCCACGTGTTAAT", "relative binding free energy": 0.02}, {"sequence": "GGCGACACGTGGGGGC", "relative binding free energy": -0.1}, {"sequence": "CGAAACACGTGTGTGT", "relative binding free energy": -0.07}, {"sequence": "TTTGTCACGTGGATTA", "relative binding free energy": 0.02}, {"sequence": "CGTCGCACGTGGTTGA", "relative binding free energy": -0.07}, {"sequence": "CGCTTCACGTGTGGGG", "relative binding free energy": 0.17}, {"sequence": "TTTAGCACGTGTTAGC", "relative binding free energy": 0.02}, {"sequence": "GGGCACACGTGTGGTG", "relative binding free energy": 0.19}, {"sequence": "GGCTGCACGTGTGTGA", "relative binding free energy": 0.09}, {"sequence": "AAATGCACGTGGCTTG", "relative binding free energy": -0.08}, {"sequence": "GATTGCACGTGATTTA", "relative binding free energy": 0.15}, {"sequence": "TGGATCACGTGTTTTC", "relative binding free energy": 0.37}, {"sequence": "ACGATCACGTGTTATG", "relative binding free energy": 0.07}, {"sequence": "TTAGTCACGTGTGCTT", "relative binding free energy": -0.02}, {"sequence": "TTGCTCACGTGTATTG", "relative binding free energy": 0.21}, {"sequence": "GCGGTCACGTGTGCGG", "relative binding free energy": 0.03}, {"sequence": "GTGATCACGTGGCGAG", "relative binding free energy": -0.02}, {"sequence": "GTTACCACGTGGAGGT", "relative binding free energy": 0.11}, {"sequence": "GGTTTCACGTGGAGTA", "relative binding free energy": 0.38}, {"sequence": "AGGTACACGTGGCTGG", "relative binding free energy": 0.03}, {"sequence": "TACGGCACGTGGTGGC", "relative binding free energy": -0.12}, {"sequence": "CTTGTCACGTGGCTAT", "relative binding free energy": 0.05}, {"sequence": "GGTATCACGTGAGGAT", "relative binding free energy": 0.3}, {"sequence": "GGTGACACGTGAGGAC", "relative binding free energy": 0.24}, {"sequence": "TATTACACGTGGTTTG", "relative binding free energy": 0.03}, {"sequence": "GGTGTCACGTGGCTTC", "relative binding free energy": 0.18}, {"sequence": "GTGCGCACGTGTGCGG", "relative binding free energy": -0.09}, {"sequence": "TGTAGCACGTGAATCT", "relative binding free energy": 0.42}, {"sequence": "CGGGCCACGTGCGGGC", "relative binding free energy": -0.13}, {"sequence": "GGCGGCACGTGATGGC", "relative binding free energy": 0.2}, {"sequence": "TATAGCACGTGAATGG", "relative binding free energy": 0.25}, {"sequence": "TGAAGCACGTGGGGAC", "relative binding free energy": -0.13}, {"sequence": "GTGTTCACGTGTGGCT", "relative binding free energy": 0.48}, {"sequence": "TGTGCCACGTGAATTA", "relative binding free energy": 0.2}, {"sequence": "GTTAGCACGTGGGATG", "relative binding free energy": -0.14}, {"sequence": "TGTTCCACGTGATTTG", "relative binding free energy": 0.18}, {"sequence": "TGTAGCACGTGTGAGC", "relative binding free energy": -0.05}, {"sequence": "TTAAACACGTGTAGTT", "relative binding free energy": -0.04}, {"sequence": "GGAGACACGTGGGGGA", "relative binding free energy": -0.08}, {"sequence": "TCTATCACGTGGGATT", "relative binding free energy": 0.27}, {"sequence": "AGGTACACGTGGTATA", "relative binding free energy": -0.03}, {"sequence": "GACGACACGTGGTGTG", "relative binding free energy": -0.02}, {"sequence": "AGCCTCACGTGGGTGT", "relative binding free energy": 0.09}, {"sequence": "TTATTCACGTGCTTGG", "relative binding free energy": 0.23}, {"sequence": "CTATGCACGTGGGAGT", "relative binding free energy": -0.27}, {"sequence": "ATTTACACGTGTTTAT", "relative binding free energy": 0}, {"sequence": "GTTGTCACGTGGTATG", "relative binding free energy": 0.13}, {"sequence": "GGTAACACGTGTCTGG", "relative binding free energy": 0.06}, {"sequence": "AGGGTCACGTGATGGA", "relative binding free energy": 0.2}, {"sequence": "GTCGTCACGTGTTATG", "relative binding free energy": 0.19}, {"sequence": "AGATGCACGTGTTGAT", "relative binding free energy": -0.02}, {"sequence": "TATGACACGTGGATTT", "relative binding free energy": 0.16}, {"sequence": "ATTTACACGTGAAGGT", "relative binding free energy": 0.32}, {"sequence": "ATTGGCACGTGCTAGT", "relative binding free energy": -0.34}, {"sequence": "TAGATCACGTGGGGCG", "relative binding free energy": -0.02}, {"sequence": "TTCAGCACGTGTTGTC", "relative binding free energy": -0.01}, {"sequence": "GGAGACACGTGGGGAG", "relative binding free energy": -0.15}, {"sequence": "AATGTCACGTGAGCGG", "relative binding free energy": 0.32}, {"sequence": "TGTTCCACGTGGGTTT", "relative binding free energy": -0.07}, {"sequence": "TTGGGCACGTGCTATT", "relative binding free energy": -0.2}, {"sequence": "TTCAGCACGTGAGTTT", "relative binding free energy": 0.19}, {"sequence": "TGAGGCACGTGTCACG", "relative binding free energy": 0.02}, {"sequence": "TGGTGCACGTGTAGAT", "relative binding free energy": 0.24}, {"sequence": "TTTCTCACGTGGCGTT", "relative binding free energy": 0.15}, {"sequence": "GGTGGCACGTGTCTCG", "relative binding free energy": -0.14}, {"sequence": "CGCGGCACGTGGTGTT", "relative binding free energy": -0.22}, {"sequence": "TTTGGCACGTGCGTTA", "relative binding free energy": -0.21}, {"sequence": "AATGGCACGTGATAGT", "relative binding free energy": -0.03}, {"sequence": "GGGGGCACGTGTCCTG", "relative binding free energy": -0.18}, {"sequence": "ATATGCACGTGCGTGT", "relative binding free energy": -0.16}, {"sequence": "TGTAGCACGTGGCTTG", "relative binding free energy": -0.25}, {"sequence": "GGCTGCACGTGGTGGC", "relative binding free energy": -0.06}, {"sequence": "CGTGTCACGTGTTATG", "relative binding free energy": -0.04}, {"sequence": "AAAGTCACGTGTGTAC", "relative binding free energy": 0.11}, {"sequence": "GTGCTCACGTGGGGCA", "relative binding free energy": -0.01}, {"sequence": "CAATGCACGTGAGGGT", "relative binding free energy": 0.25}, {"sequence": "TGTTTCACGTGAACGG", "relative binding free energy": 0.45}, {"sequence": "GGTTTCACGTGAGGAA", "relative binding free energy": 0.43}]}]}
